Out of some 48,000 compounds screened, about 450 (0.94%) were called active. Roughly 19% stayed inconclusive and do not appear here. The call rests on the fitted dose curve; in most records, active means well fitted inhibition curve with a large enough effect; inconclusive means small, poorly fitted or top-dose-only effect; inactive means no such curve, though single readings can be large or run the other way. The list shows a part of the results.
Assay: Primary qHTS for Identification of Small Molecule Inhibitors of Huntingtin Promoter Activity; further: nearly all actives have a fitted effect of over 50% in size
Settings: HEK293 HTT promoter firefly luciferase reporter (activity 0% = vehicle and -100% = no light), 24 h; series mostly up to 57.5 µM; activity change, negative = inhibition: at the top concentration
Outline: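 HEK293 luciferase promoter-reporter cells (2,500/well) plated 24 h, then compounds added at up to 57.5 uM final for 24 h at 37 °C. Firefly luminescence by Dual-Glo, normalized to vehicle (0%) and zero RLU (-100%).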

Activity change, negative = inhibition, inactive:
CCCN1CCc2nc(N3CCN(C)CC3)ncc2C1 -19%, CCN(CC)c1nn2c(=O)c(C(=O)NCCc3cccc(C)c3)cnc2s1 -16.2%, Fc1cccc(CSc2ccc(-c3cccs3)nn2)c1 51.3%, COc1ccc(S(=O)(=O)NCCc2csc3nc(-c4ccccc4)nn23)cc1OC -16.1%, CCN1C(=O)C(O)(c2c[nH]c3ccccc23)c2cc(Br)ccc21 (stereo unspecified) -24.9%, Cc1cccc(Cn2c(=O)n(-c3ccccc3C)c(=O)c3c2c2cc(C)ccc2n3C)c1 -6.48%, CCC(=O)N1c2ccccc2CC1C(=O)NCc1cc(Br)ccc1OC (stereo unspecified) 0.208%, Cc1ccc2oc3c(c(=O)c2c1)C(c1ccc(O)cc1)N(c1nc(C)c(C)s1)C3=O (stereo unspecified) -2.73%, CCC(=O)Nc1nnc(S(=O)(=O)N2c3ccccc3CC2C)s1 (stereo unspecified) -11.6%, CC(C)Cc1ccc(C(C)C(=O)O)cc1 (stereo unspecified), Cc1ccc(CNc2nc3ccccc3n3cnnc23)cc1 -4.26%, COc1ccc(NC(=O)c2cnc(N3CCCC3)nc2)cc1OC -13.1%, CCCC1=Nc2cc(C(=O)N3CCC(C(=O)OCC)CC3)ccc2Sc2ccccc21 -18.3%, Cc1cc(C)c2oc(-c3cccc(NC(=O)c4ccc(-c5cccc([N+](=O)[O-])c5)o4)c3)nc2c1 6.24%, Cc1cccc(NC(=O)C2CCCN2S(=O)(=O)c2ccc3c(c2)n(C)c(=O)c(=O)n3C)c1 (stereo unspecified) -1.48%, O=C(NCc1cccc(F)c1)c1ccccc1NC(=O)c1nsc2ccccc12 -1.64%, O=C(CCSCc1cccc(Cl)c1)NCCc1ccc(Cl)cc1 -12%, CCc1ccc(C(=O)C(C)CN2CCCCC2)cc1 (stereo unspecified) 0.0991%, COc1ccc(-n2c(SCC(=O)NCc3ccc(F)cc3)nc3c([nH]c4ccccc43)c2=O)cc1 -23%, COc1ccccc1CNC(=O)CCCCn1c(=O)c2ccccc2n(Cc2ccccc2F)c1=O -2.77%, CC(=O)Nc1cccc(NC(=O)Cn2cnc3c(oc4ccccc43)c2=O)c1 1.69%, Cn1c(=O)n(C)c2cc(N3CCOCC3)c(NS(=O)(=O)c3cccc(C#N)c3)cc21 13.8%, Cc1nn2cc(-c3ccc(OC(C)C)cc3)nc2s1 -38.9%, Cc1ccc(CCNC(=O)C2CCN(S(=O)(=O)c3ccc4c(ccn4C)c3)CC2)cc1 -10.6%, Cc1ccc(-c2nc3c4c(-c5ccccc5)c(-c5ccccc5)oc4ncn3n2)cc1 -6.77%, Cc1ccc(CNC(=O)CSc2nc3ccccc3nc2Cc2ccc(C)cc2)cc1 0.918%, CCOc1ccc(NC(=O)c2c(C)oc3nc(C)nc(N4CCOCC4)c23)cc1 4.82%, Cc1cccc(-c2nc3c(cnn3-c3ccccc3)c(=O)n2-c2ccc(Cl)cc2)c1 -9.03% [at 11.5 µM], COc1ccc(NC(=O)CSc2nc(C)cc(C)c2C(=O)Nc2ccccc2OC)cc1 -21.5%, COc1ccc(CNC(=O)Cn2nnc(-c3ccc(C(F)(F)F)cc3)n2)cc1 17.6%, O=c1cc(-c2ccccc2)n2c(SCc3ccc(Cl)cc3)nnc2[nH]1 -13.4%, COc1ccc(-n2c3c(cc(-c4nc(-c5ccc(C)cc5)cs4)c2=O)C(=O)CC(C)(C)C3)cc1 1.07%, CC(C)C(=O)NCC(c1ccc2c(c1)OCO2)N1CCN(c2ccccc2F)CC1 (stereo unspecified) -19.3%, COc1ccccc1C(=O)Nc1ccc2oc(-c3cccc(Cl)c3Cl)nc2c1 5.51%, Cc1sc2c(c1C)c(=O)n(-c1ccc(Cl)cc1)c(=O)n2Cc1cc(=O)n2ccccc2n1 -11.9%, O=c1[nH]cnc2c1ncn2[C@@H]1O[C@H](CO)[C@@H](O)[C@H]1O 3.57%, CC1CCCN(C(=O)c2cc3c(=O)n(C)c4ccccc4c3s2)C1 (stereo unspecified) 4.72%, COc1ccc(C2C(C(N)=O)=C(C)Nc3nc(SCc4ccccc4Cl)nn32)cc1OC (stereo unspecified) -9.82%, CCOc1ccc(C(=O)NCc2nc3cccnc3n2Cc2ccc(F)cc2)cc1OCC -6.55%, CCOC(=O)c1ccccc1NC(=O)CSc1nc2ccncc2[nH]1 -24.4%, CCOC(=O)CNc1nc(Oc2ccc(=O)n(C)n2)nc(N(CC)CC)n1 -27.2%, CCC(=O)Nc1cc(-c2cccc(C)c2)nn1-c1ccccc1 -12.4%, Cc1cccc(-c2nc(SCC(=O)N3CCc4ccccc43)c3c(=O)n(C)c(=O)n(C)c3n2)c1 -5.71%, COc1ccc(N2CCN(Cc3nc4c(c(=O)[nH]c(=O)n4C)n3Cc3ccc(Cl)cc3)CC2)cc1 -18.1%, COc1cccc2c1ncc1c(-c3ccc(C)cc3)nn(-c3cccc([N+](=O)[O-])c3)c12 -21.6%, CCOc1ccc(-n2c(SCC(=O)N3CCc4ccccc43)nc3c([nH]c4ccccc43)c2=O)cc1 -5.62%, COc1ccc(NC(=O)Cn2c(=O)c(-c3cc(C)ccc3NC(C)=O)nc3ccccc32)c(OC)c1 1.94%, Cc1cc(C)cc(NC(=O)C(=O)NCC(c2ccc3c(c2)OCO3)N2CCN(C)CC2)c1 (stereo unspecified) 32.9%, O=C(COc1ccccc1)NCc1ccc2c(c1)CCN2C(=O)c1ccc(Cl)cc1 -15.2%, COc1ccc(NC(=O)N(CCC(C)C)C(C)c2cccs2)c(OC)c1 (stereo unspecified) -23.8%, Cc1cc(=O)[nH]c2nnc(SCC(=O)Nc3ccc(OC(F)(F)F)cc3)n12 -16.7%, COc1ccc(OC)c(NC(=O)c2cc(-c3ccc(Cl)s3)nc3ccccc23)c1 -0.493%, NCc1nc2cccnc2n1Cc1ccccc1Cl -7.66%, COc1ccccc1CNC(=O)CCc1c(C)nn(-c2ccc(N3CCOCC3)nn2)c1C -15.9%, O=C(NCc1ccco1)c1ccc2c(c1)N(Cc1ccccc1)C(=O)c1ccccc1S2(=O)=O -19.7%, COCCNc1ncnc2c1c(-c1ccccc1)cn2-c1ccc(C)c(Cl)c1 -28.3%, COc1ccc(-n2ncc3c(NC(C)(C)CO)ncnc32)cc1 -22.2%, CCOc1ccc(NC(=O)Cn2c3ncccc3c(=O)n2-c2ccc(CC)cc2)cc1 -8.91%, Cc1ccc2onc(CC(=O)N3CCN(c4ccc(F)cc4)CC3)c2c1 -14.1%, CC(C)CC(=O)N1c2nc(C(C)C)nn2C2(CCCCC2)[C@@H]2CCCC[C@@H]21 -8.25%, CN(CCCNC(=O)c1cc2c(Cl)nc3ccccc3c2s1)Cc1ccccc1 -9.1%, COC(=O)c1c(NC(=O)c2cc3ccccc3c(=O)o2)sc2c1CCCC2 0.894%, CCN(CC)CCNC(=O)c1c(C)oc2ncnc(N3CCOCC3)c12 -1.8%, Cc1cccc(C)c1OCC(=O)Nc1ncn[nH]1 -18.1% [at 11.5 µM], CCOc1ccc(CCNC(=O)c2cnc3sc(N(CC)CC)nn3c2=O)cc1OCC -3.86%, Cc1cc(C)c(NC(=O)Cn2cc(S(=O)(=O)Cc3ccccc3F)c3ccccc32)c(C)c1 -12.8%, COc1ccccc1NC(=O)N(Cc1nnc2n1CCCCC2)c1ccc(F)cc1 -10.1%, COc1ccc(NC(=O)Cn2nnc(C(=O)NCCc3ccccc3)c2N)cc1 -18.8%, CC(=O)c1cccc(NC(=O)C(C)n2c(=O)cc(C)c3c(C)nn(-c4ccccc4)c32)c1 (stereo unspecified) -9.57%, COc1ccc(CCNC(=O)c2ccc(Nc3nc4ccccc4n4nnnc34)cc2)cc1OC -15%, O=C(NCCc1ccccc1)c1ccc2c(c1)N(Cc1ccc(F)cc1)C(=O)c1ccccc1S2(=O)=O -15%, CC(C)c1ccc(NC(=O)c2cc3sc(Cl)cc3n2C)cc1 10.4%, Cc1cc(C)cc(NC(=O)N2CCC3(CC2)Oc2ccccc2C(=O)N3Cc2ccccc2F)c1 -25.8%, CC1CCc2c(sc3nc(-c4cc5cc(Br)ccc5oc4=O)[nH]c(=O)c23)C1 (stereo unspecified) -6.01%, O=C(CCS(=O)(=O)c1cccc2nonc12)Nc1c(F)cccc1F -11.7%, CCOc1ccc(NC(=O)c2c(NCc3cccnc3)sc3c2CCCC3)cc1 40.7%, CCOC(=O)c1ccc(CN(Cc2ccc(F)cc2)S(=O)(=O)c2ccc(F)c(C(=O)Nc3ccc(Cl)cc3F)c2)cc1 -31.3%, O=S(=O)(Nc1ccc(Br)cc1F)c1ccc2nc(-c3ccccc3)[nH]c2c1 -7.37%, COc1ccc(CCn2c(=O)c3cccnc3n(CC(=O)Nc3ccc(C)c(F)c3)c2=O)cc1OC 9.67%, COc1ccc(-c2nnc(SCC(=O)Nc3cccc(C(F)(F)F)c3)nc2-c2ccc(OC)cc2)cc1 -1.19%, CCOc1ccc(OCC)c(NC(=O)C2CCN(S(=O)(=O)c3c(C)noc3/C=C/c3ccccc3F)CC2)c1 -7.74%, COc1cccc(Cn2c(CNS(=O)(=O)c3ccc(F)c(Cl)c3)nc3cccnc32)c1 -23%, CC(C)COc1ccc(C(=O)Nc2cc3nn(-c4ccccc4)nc3cc2Cl)cc1 -3.89%, CCc1nn2c(=O)cc(COc3ccc(/C=C(\C#N)C(=O)Nc4ccc(F)cc4)cc3OC)nc2s1 2.3%, O=S(=O)(NCC(c1cccs1)S(=O)(=O)c1ccccc1)c1ccc(F)cc1 (stereo unspecified) -20.8%, CCOc1ccccc1CNC(=O)c1cc(-c2ccc(Cl)s2)nc2ccccc12 -30.9%, Cc1ccccc1-c1nn2c(=O)cc(CN3CCN(C(=O)/C=C/c4ccccc4)CC3)nc2s1 -4.69%, CCc1ccc(NC(=O)Cn2c(=O)n(CCC(=O)N3CCc4ccccc4C3)c(=O)c3ccccc32)cc1 -12.8%, CCc1ccc2oc(C(=O)Nc3nc(-c4ccc(F)cc4)ns3)c(C)c2c1 2.04%, Cc1cc2c(n1-c1ccc(C(=O)NCCc3ccc(Cl)cc3)cc1)CCC(C)C2 (stereo unspecified) 0.489%, COc1ccc(-c2cc(C(F)(F)F)n3nc(C(=O)OC(C)C)cc3n2)cc1 -15.6%, Cc1c(C2=CCN(S(=O)(=O)c3ccc(Cl)cc3)CC2)c2ccccc2n1CC(=O)N1CCCC1 -29.5%, CCC1CCCCN1C(=O)CSc1n[nH]c(-c2ccccc2)n1 (stereo unspecified) 10.8%, COc1ccc(N(Cc2nnc3n2CCCCC3)C(=O)Nc2ccc(Cl)cc2)cc1Cl -10.4%, CNC(=O)c1ccc(-c2nc(CN3CCc4ccccc43)c(C)o2)cc1 -22.8%, CC(=O)Nc1ccc(Nc2nc3ccc(Cl)cc3n3cnnc23)cc1 -15.4%

Reference: PubChem BioAssay AID1508623 (National Center for Advancing Translational Sciences (NCATS), 2021)
